# According to the supplement of paper PMC4604168 (melanoma cell lines):
# The other results are listed elsewhere or left out. Most values come without repeats; read them as rough.
# Columns and labels:
# Assay in all cases: cell count relative to DMSO control; melanoma cells; higher = more viable cells
# Details in all cases: library dose: standard library concentration; 72 h
# G361 = test system: G361
# IPC-298 = test system: IPC-298
# IST-MEL1 = test system: IST-MEL1
# LB2518-MEL = test system: LB2518-MEL
# LOXIMVI = test system: LOXIMVI
# MEL-HO = test system: MEL-HO
# MZ2-MEL = test system: MZ2-MEL
# MeWo = test system: MeWo
# RPMI7951 = test system: RPMI7951
# RVH-421 = test system: RVH-421
# SkMel28 = test system: SkMel28
# SkMel2 = test system: SkMel2
# SkMel30 = test system: SkMel30
# SkMel5 = test system: SkMel5
# UACC257 = test system: UACC257
# UACC62 = test system: UACC62
# WM115 = test system: WM115
# WM1716 = test system: WM1716
# WM1745 = test system: WM1745
# WM3526 = test system: WM3526
# 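Further: cells treated in 1,536-well plates, then fixed and DAPI-stained, with nuclei counted from automated high-throughput microscope images.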
SMILES,cell count (G361) [%],cell count (IPC-298) [%],cell count (IST-MEL1) [%],cell count (LB2518-MEL) [%],cell count (LOXIMVI) [%],cell count (MEL-HO) [%],cell count (MZ2-MEL) [%],cell count (MeWo) [%],cell count (RPMI7951) [%],cell count (RVH-421) [%],cell count (SkMel28) [%],cell count (SkMel2) [%],cell count (SkMel30) [%],cell count (SkMel5) [%],cell count (UACC257) [%],cell count (UACC62) [%],cell count (WM115) [%],cell count (WM1716) [%],cell count (WM1745) [%],cell count (WM3526) [%]
"C#Cc1cccc(Nc2ncnc3cc(OCCOC)c(OCCOC)cc23)c1 [erlotinib] + COc1cc2c(Oc3ccc4[nH]c(C)cc4c3F)ncnc2cc1OCCCN1CCCC1 [cediranib] (first compound 4 µM, partner dose 2 µM)",84.6,74.9,105,70.5,48.4,83.5,104,62.9,72.5,62.1,94.7,98.5,77.4,85.9,87.6,60,66.9,79,60.1,69.2
"Nc1cccc2c1CN(C1CCC(=O)NC1=O)C2=O (stereo not given) [lenalidomide] + COc1ccc(-c2ccc3c(N4CCOCC4)nc(N4C[C@@H](C)O[C@@H](C)C4)nc3n2)cc1CO [KU0063794] (first compound 5 µM, partner dose 0.1 µM)",73.9,75.3,89.1,74.4,88,83.1,83.5,80.3,100,68.7,53.3,83.8,84,47.8,83.6,125,90.8,84.3,68.6,90.8
"Nc1cccc2c1CN(C1CCC(=O)NC1=O)C2=O (stereo not given) [lenalidomide] + NCC(=O)Nc1ccc(-n2nc(C(F)(F)F)cc2-c2ccc3c(ccc4ccccc43)c2)cc1 [OSU03012] (first compound 5 µM, partner dose 5 µM)",69.9,51.4,72.2,79.1,66,87.2,80.6,77.8,97.3,82.2,24.1,37,39.5,55.4,86.6,69.5,81.8,82.5,52.5,54.5
"Nc1cccc2c1CN(C1CCC(=O)NC1=O)C2=O (stereo not given) [lenalidomide] + COc1ccc(COc2ccc(Cc3cnc(N)nc3N)cc2OC)cc1 [GW2580] (first compound 5 µM, partner dose 5 µM)",82.1,88.9,99.6,89.9,85,98.4,101,84.5,80.2,111,74.1,82.6,80.6,61.6,79,79.5,92.9,84.4,74.1,87.8
"Clc1ccc(Nc2nnc(Cc3ccncc3)c3ccccc23)cc1 [vatalanib] + CN(NC(=O)CC(=O)NN(C)C(=S)c1ccccc1)C(=S)c1ccccc1 [STA4783] (first compound 10 µM, partner dose 0.03 µM)",43.4,71.4,81.3,70,79.5,49.4,91.1,23.8,84.1,192,62,76.8,72.4,66.6,88.7,62.2,22.4,5.59,49.5,74.7
"Cn1c(Nc2ccc(C(F)(F)F)cc2)nc2cc(Oc3ccnc(-c4ncc(C(F)(F)F)[nH]4)c3)ccc21 + C=CCn1c(=O)c2cnc(Nc3ccc(N4CCN(C)CC4)cc3)nc2n1-c1cccc(C(C)(C)O)n1 [MK1775] (first compound 0.4 µM, partner dose 0.1 µM)",31.6,47.1,74.6,28.3,78.4,58.8,73.4,64,35.3,59.2,28.7,42.5,73.7,35.4,76.5,39.6,33.6,64.7,35.7,38.4
"Clc1ccc(Nc2nnc(Cc3ccncc3)c3ccccc23)cc1 [vatalanib] + Cc1cc(N2CCOCC2)cc2[nH]c(-c3c(NC[C@@H](O)c4cccc(Cl)c4)cc[nH]c3=O)nc12 [BMS536924] (first compound 10 µM, partner dose 1 µM)",80.1,92.3,80.1,97.3,68.4,71.4,84.3,76.1,96.5,69.3,104,85.1,113,77.1,75.9,122,124,110,63,86
"Nc1cccc2c1CN(C1CCC(=O)NC1=O)C2=O (stereo not given) [lenalidomide] + CC(C)CCN1c2nc(Nc3cc(F)c(O)c(F)c3)ncc2N(C)C(=O)C1C [BID1870] (first compound 5 µM, partner dose 1 µM)",57,77.3,83.9,98.5,77.3,78.1,92.1,72.7,77.7,82.3,54,80.7,75.3,66.8,97,90.6,84.7,94.6,89.7,65.2
"C#Cc1cccc(Nc2ncnc3cc(OCCOC)c(OCCOC)cc23)c1 [erlotinib] + O=C(O)C(=O)Nc1sc2c(c1C(=O)O)CCNC2 [TCS401] (first compound 4 µM, partner dose 8.33333 µM)",66.8,70.5,110,75.1,91.3,85.7,78.8,69.9,95.7,76.7,67,89.3,99,63.6,89.9,89,80.5,81,70,64.8
"OCc1c[nH]c2ccccc12 [Indole-3-carbinol] + COc1ccc(Cl)c(Nc2nc3ccccc3nc2NS(=O)(=O)c2cccc(NC(=O)C(C)(C)N)c2)c1 [XL147] (first compound 4 µM, partner dose 4 µM)",89.1,76.4,60,90.8,115,74.5,76.4,88.7,79.6,74.6,55.3,86.1,95.3,68.8,70.2,68.2,92.6,80,108,67.1
"Nc1cccc2c1CN(C1CCC(=O)NC1=O)C2=O (stereo not given) [lenalidomide] + COc1cc2ncnc(Nc3ccc(Oc4ccccc4)cc3)c2cc1OC [SrcI1] (first compound 5 µM, partner dose 10 µM)",63.5,74.8,85.8,102,59,83.3,67.7,81.2,55.1,104,67,82.3,84.3,60.7,89.7,65.8,67.6,69.4,56,57.7
"Clc1ccc(Nc2nnc(Cc3ccncc3)c3ccccc23)cc1 [vatalanib] + CN(C)S(=O)(=O)c1ccc2c(c1)/C(=C/c1cc3c([nH]1)CCCC3)C(=O)N2 [SU6656] (first compound 10 µM, partner dose 2 µM)",45.5,54.4,63.7,73.2,63.5,57.9,78.6,59.8,46.1,80.2,43.8,70,84.2,32.9,55.8,45.9,45,49.2,17.7,51
"COCC[n+]1c2c(n(Cc3cnccn3)c1C)C(=O)c1ccccc1C2=O + COC(=O)c1sccc1S(=O)(=O)Nc1ccc(Nc2ccccc2)cc1OC [GSK0660] (first compound 0.002 µM, partner dose 5 µM)",83.5,73,54.2,50.7,114,100,39.8,93.2,37.2,94.5,81.1,63.2,87.7,62.4,41,91.9,67.5,75.9,83.4,77.3
"C#Cc1cccc(Nc2ncnc3cc(OCCOC)c(OCCOC)cc23)c1 [erlotinib] + CCN(CC)CCCCNc1ncc2cc(-c3cc(OC)cc(OC)c3)c(NC(=O)NC(C)(C)C)nc2n1 [PD173074] (first compound 4 µM, partner dose 0.5 µM)",77.8,74,93.2,59.5,57.7,78.7,36.7,75,64.8,82.1,75.9,92.3,74.3,69.6,94.5,83.4,83.6,99.4,55.3,81.9
"COCC[n+]1c2c(n(Cc3cnccn3)c1C)C(=O)c1ccccc1C2=O + O=c1cc(-c2cccc3c2Sc2ccccc2S3)oc(N2CCOCC2)c1 [KU55933] (first compound 0.002 µM, partner dose 5 µM)",37.9,42.5,37.3,7.92,69.9,72,24.3,26.6,18.6,89,48.6,28.9,52.9,30.5,19.6,51.4,74,63.2,66.4,27
"Nc1cccc2c1CN(C1CCC(=O)NC1=O)C2=O (stereo not given) [lenalidomide] + N#Cc1c(O)c2c(-c3ccc(-c4ccccc4O)cc3)csc2[nH]c1=O [A769662] (first compound 5 µM, partner dose 10 µM)",91,102,103,88.9,92.3,84.8,106,86.4,84.4,81.6,68.2,103,94.3,102,116,107,96.4,104,89.8,77.1
"Cn1c(Nc2ccc(C(F)(F)F)cc2)nc2cc(Oc3ccnc(-c4ncc(C(F)(F)F)[nH]4)c3)ccc21 + CC1(C)NC(=O)N(c2ccc([N+](=O)[O-])c(C(F)(F)F)c2)C1=O [nilutamide] (first compound 0.4 µM, partner dose 5 µM)",25,50.1,82.1,41.6,55.7,63.8,66.5,63.9,59.7,57.4,35.8,50.2,64.6,38.7,79.9,50.6,27.1,59.7,42,52.4
"Cn1c(Nc2ccc(C(F)(F)F)cc2)nc2cc(Oc3ccnc(-c4ncc(C(F)(F)F)[nH]4)c3)ccc21 + Oc1nc(-c2ccc(C(F)(F)F)cc2)nc2c1CSCC2 [XAV939] (first compound 0.4 µM, partner dose 10 µM)",22,50.1,77.1,44,82.8,59.1,70.1,54.8,43.5,43.6,30.1,65.3,74.1,42.5,78.2,42.4,45.6,49.1,43,40.8
